Drawing on PubChem BioAssay AID485344 (National Center for Advancing Translational Sciences (NCATS), 2010), this text covers inhibition for 94 compounds.

The whole screen tested about 340,000 compounds, of which about 6,900 (2%) were called active. Rule as the data show it: active = inhibition above about 30%; inactive = below that, where a call was filed. Only a part is listed here, and it is no random draw. Where no call is shown, the source filed none.

The inhibition is the relative decrease from the control value, in per cent.

Sequence of UniProt P14416 (P14416 whole entry, looked up): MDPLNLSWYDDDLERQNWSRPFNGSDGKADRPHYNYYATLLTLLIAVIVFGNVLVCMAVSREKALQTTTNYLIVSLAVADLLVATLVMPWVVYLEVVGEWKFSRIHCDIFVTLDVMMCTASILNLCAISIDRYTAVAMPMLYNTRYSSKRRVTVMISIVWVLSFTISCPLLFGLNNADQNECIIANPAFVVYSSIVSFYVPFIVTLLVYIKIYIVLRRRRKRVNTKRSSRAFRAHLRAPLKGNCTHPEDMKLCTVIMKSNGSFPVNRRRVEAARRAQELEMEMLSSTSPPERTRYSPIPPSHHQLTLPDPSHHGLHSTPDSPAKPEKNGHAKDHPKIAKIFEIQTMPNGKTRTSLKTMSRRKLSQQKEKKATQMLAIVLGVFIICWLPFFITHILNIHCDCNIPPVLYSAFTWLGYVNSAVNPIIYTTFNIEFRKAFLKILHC

The target of the assay is D(2) dopamine receptor (Homo sapiens) (UniProt P14416). Briefly: HTS Assay for Allosteric Antagonists of the Human D2 Dopamine Receptor: Primary Screen for Antagonists. Also: 0% is about no effect. The conditions noted are these: HEK293 TREx D2 cells, calcium flux, dopamine EC80; at 10 µM; stronger effect = higher value. An outline of the steps:
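In this primary screen, negative modulation is detected by tracking calcium flux after an EC80 dopamine challenge in inducible HEK293 T-REx D2 cells preexposed to test compound for 180 s.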
As for `CCN1CCN(c2ncnc3c2cnn3-c2ccc(C)c(Cl)c2)CC1`, the inhibition is -1.03%. Regarding `CC(Oc1ccc(F)cc1)C(=O)Nc1nc(-c2ccc(F)cc2)ns1` (centres undefined), the inhibition was found to be 27.6%.

Turning to `COc1ccc(C)cc1S(=O)(=O)NCC(c1cccs1)S(=O)(=O)c1ccc(C)cc1` (centres undefined), the inhibition is -4.29%.

`COC(=O)c1ccc(NC(=O)CCc2c(C)nc3c(-c4ccccc4)c(C)nn3c2C)cc1`: the inhibition came out at 5.14%.

Consider `CCn1c(CNC(=O)c2ccc(OC)cc2)nnc1SCC(=O)Nc1ccccc1`, for which the inhibition is -1.55%. Take `CCOC(=O)c1ccc(OCC2c3cc(OC)c(OC)cc3CCN2C(=O)c2ccc(S(=O)(=O)N3CCCC3)cc2)cc1` (centres undefined): the inhibition worked out at 11.5%. Consider `COc1ccc(-n2c(C)c(C(C)=O)c3cc(OC(=O)c4ccc(C)cc4)ccc32)cc1`, for which the inhibition is -20.8%. Take `CN1CCN(CCOC2Cc3ccccc3Sc3ccc(Cl)cc32)CC1` (centres undefined): the inhibition is active: 87.9%.

With `Cc1ccc(CCNC(=O)c2cn(C)c3ccc(S(=O)(=O)N(C)C4CCCCC4)cc3c2=O)cc1`, the inhibition was found to be 14.8%.

With `CCC1=Nc2cc(C(=O)NCC(C)c3ccccc3)ccc2Sc2ccc(C)cc21` (centres undefined), the inhibition came to 10.2%.

`COc1ccc(CNS(=O)(=O)c2cc3c(cc2C)N(C)CCO3)cc1`: the inhibition is -1.4%. Then `Cc1ccc(Cn2cc(C(=O)c3ccc(F)cc3)c(=O)c3cc4c(cc32)OCO4)cc1`, with -5.56%; and `Cc1cccc(NC(=O)c2cc(S(=O)(=O)NCc3ccc4c(c3)OCO4)ccc2F)c1C`, with -1.49%. With `CN(C)CCCN1c2ccccc2Sc2ccc(C(F)(F)F)cc21`, the inhibition is active: 94.9%. `CCOC(=O)Cn1c(=O)n(CC2CCCO2)c2nc(-c3ccccc3F)nc(C(N)=O)c21` (centres undefined): the inhibition is -14.2%. Then `CCN(c1ccc(C)cc1)S(=O)(=O)c1nnc(NC(=O)C2CCCCC2)s1`, with -2.92%. Then `Cc1ccc(OCC(=O)NCC(c2ccc(Cl)cc2)N2CCCCC2)cc1` (centres undefined), with 21.2%; and `Cc1ccc(C)c(CN2C(=O)c3ccccc3S(=O)(=O)c3ccc(C(=O)N4CCc5ccccc54)cc32)c1`, with 1.23%.

Turning to `CCCNC(=O)CSc1nc2ccccc2nc1Cc1ccc(Cl)cc1`, the inhibition is -9.77%. With `COc1ccc(NC(=O)N2CCc3c(sc4c3CCCC4)C2c2ccccc2OC)cc1` (centres undefined), the inhibition came to 2.69%. For `CC(C)CC(=O)Nc1ccc2nc(SCC(=O)N3CCCC3)sc2c1`, the inhibition is -12.1%. Consider `CCOc1ccc(N(CC(=O)Nc2cc(C)ccc2C)S(=O)(=O)c2c(C)[nH]c(=O)[nH]c2=O)cc1`, for which the inhibition is -12%. As to `Cc1ccc(NC(=O)CCn2nc(C)c(S(=O)(=O)N3CCCCC3)c2C)cc1Cl`, the inhibition was -5.78%. With `OCC1(Cc2ccc(Cl)cc2)CCN(CCCc2ccccc2)CC1`, the inhibition was active: 69.1%.

For `CCOC(=O)c1c(C)sc(-c2c(-c3cc(C)ccc3C)[nH]c3c2c(=O)n(C)c(=O)n3C)c1O`, the inhibition was -5.94%.

As to `O=C(Nc1cccc(Cl)c1Cl)c1cc2nc(-c3ccc(Cl)cc3)cc(C(F)(F)F)n2n1`, the inhibition is -7.35%. Then `Cc1ccc(CN2C(=O)CN(C3CCC(C)CC3)C(=O)C2c2ccc(F)cc2)cc1` (centres undefined), with -15.3%; and `COc1ccc(Cn2c(=O)n(-c3ccccc3C)c(=O)c3c4c(sc32)CN(C(C)=O)CC4)cc1`, with 9.39%. For the compound `CCCN(CCC)CCNC(=O)c1cc2c(-c3ccc(Cl)cc3)nn(C)c2s1`, the inhibition was active: 37%. In the case of `COc1cc(-c2noc(CN3CCN(c4cccc(Cl)c4)CC3)n2)cc(OC)c1OC` it was -16.4%; in that of `CSc1cccc(NC(=O)CC(c2cccs2)N2Cc3ccccc3C2=O)c1` (centres undefined), -1.13%; in that of `Cc1ccc(NC(=O)CSc2n[nH]c(-c3ccc(F)cc3)n2)cc1F`, -6.05%. In the case of `CCOc1ccccc1NC(=O)N1CCN(C)c2ncccc21`, the inhibition is -13.1%. Turning to `CSc1ccc(CCNC(=O)CCc2c(C)nc3c(c(C)nn3-c3ccc(C)c(C)c3)c2C)cc1`, the inhibition amounted to 1.93%. In the case of `COc1ccc2nc(NC(=O)c3nc(S(=O)(=O)Cc4ccccc4)ncc3Cl)sc2c1`, the inhibition amounted to 11%. In the case of `CCN(CC)CCNC(=O)c1cc(-c2ccc(Br)s2)nc2ccccc12` it was -8.1%. `CCc1nn(CC(=O)Nc2cc(C)cc(C)c2)c(=O)c2cc3sccc3n12`: the inhibition turned out to be 0.995%.

Regarding `Cc1ccc(CN2CCCn3nc(C(=O)NCc4ccc(OC(C)C)cc4)cc3C2=O)cc1`, the inhibition turned out to be 9.44%. In the case of `C=CCn1c(=O)c(C#N)cc2c(=O)n3ccccc3nc21` it was active: 57.8%; in that of `CCN(CC)CCNC(=O)C1CCN(c2cc(C)nc3c(-c4ccc(Cl)cc4)c(C)nn23)CC1`, 16.3%; in that of `Cc1ccc(NC(=O)CSc2nc(=O)n(CCCN3CCOCC3)c3c2CCCC3)cc1F`, active: 31.1%. Regarding `O=C(Cn1nc(-c2ccccc2)nc(Cc2ccccc2)c1=O)Nc1ccccc1`, the inhibition is 2.3%. In the case of `CCCCC(=O)OC1=C(C(C)=O)N(Cc2ccccc2)S(=O)(=O)c2ccccc21` it was 9.27%. For `Cc1ccc(C)c(CSc2ccc3nnc(CCNS(=O)(=O)c4ccccc4)n3n2)c1`, the inhibition turned out to be 3.37%. As for `Cc1ccn2c(Nc3ccc(F)cc3)c(-c3ccccn3)nc2c1`, the inhibition worked out at 21.5%.

Consider `COc1ccc(OC)c(Nc2ncnc3c2cnn3-c2cccc(Cl)c2)c1`, for which the inhibition was -21.3%. Take `COCCNC(=O)CSc1cn(CC(=O)N2CCCCCC2)c2ccccc12`: the inhibition was determined as 6.06%.

Regarding `CCCCS(=O)(=O)CC(COc1ccccc1)OC(=O)c1ccccc1` (centres undefined), the inhibition is active: 34.9%. In the case of `CSc1ccc(CCNC(=O)Cn2ncc3c(=O)oc4ccccc4c32)cc1` it was 11.9%. `Cc1ccc(NC(=O)C2CCCN2S(=O)(=O)c2ccc3nc(-c4ccccc4)[nH]c3c2)cc1F` (centres undefined): the inhibition stood at 4.24%. In the case of `CCOc1ccc(OCC)c(NC(=O)C2CCN(S(=O)(=O)c3cn(C)cn3)CC2)c1` it was 8.2%.

Turning to `CCCC(=O)N1CC(=O)Nc2ccc(Cl)cc2C1c1ccccc1` (centres undefined), the inhibition came to 4.07%. In the case of `Cc1ccc(N2C(=O)NC(NS(=O)(=O)c3ccc(Cl)cc3)(C(F)(F)F)C2=O)cc1C` (centres undefined), the inhibition turned out to be 14.2%.

As for `O=C(c1ccco1)n1nc(-c2ccc(Cl)cc2)nc1NCc1ccccc1`, the inhibition is -1.15%. `COc1ccc(S(=O)(=O)N2CCC(c3ccncc3)CC2)cc1OC`: the inhibition came to 16.8%.

Consider `CCc1ccc(NC(=O)Cn2c(=O)n(Cc3nc(-c4ccccc4)no3)c(=O)c3cc4c(cc32)OCO4)cc1`, for which the inhibition is -1.63%.

`Cc1cccc(C(=O)Nc2ccc(C(=O)OCc3cc(=O)n4nc(C5CC5)sc4n3)cc2)c1`: the inhibition is -8.75%. In the case of `COc1ccc(S(=O)(=O)NCC(c2ccc(N(C)C)cc2)N2CCc3ccccc32)cc1` (centres undefined), the inhibition is -10.7%. For the compound `CCOc1cc(C2C(C(=O)Nc3ccc(OC)cc3)=C(C)Nc3nc(SC)nn32)ccc1O` (centres undefined), the inhibition is 21.4%. For `Cc1ccc2c(=O)cc(C(=O)Nc3ccc(S(=O)(=O)Nc4nc(C)cc(C)n4)cc3)oc2c1`, the inhibition was -2.85%. Consider `COc1ccc(NC(=O)C2CCCN(S(=O)(=O)c3ccc4c(c3)CCCC(=O)N4)C2)cc1OC` (centres undefined), for which the inhibition came to 4.55%. Consider `C=CCNc1nc(N2CCOCC2)nc(N2CCOCC2)n1`, for which the inhibition was active: 31.2%. In the case of `CCOC(=O)CSc1nc2c([nH]c3ccccc32)c(=O)n1-c1ccc(OC)cc1`, the inhibition is 11.3%. In the case of `COc1ccc(N(Cc2cccs2)C(=O)c2ccc(Br)o2)cc1` it was 1.03%; in that of `CCC1CN(C(=O)C2CCN(S(=O)(=O)c3c(C)noc3/C=C/c3ccccc3F)CC2)c2cc(Cl)ccc2O1` (centres undefined), -10.8%.

As to `CCOc1ccc(/C=C/c2nc(C#N)c(N3CCCCC3)o2)cc1`, the inhibition is -4.58%.

On to `Cc1ccc(-c2nc3ccccc3s2)cc1NC(=O)COc1ccccc1`, for which the inhibition is 9.02%. For `Cc1ccc(OCC(=O)NCC2(N3CCOCC3)CCCCC2)cc1C`, the inhibition stood at 5.13%. In the case of `CCOC(=O)c1cccc(NC(=O)CCc2c(C)nn(-c3ccc(N4CCCC4)nn3)c2C)c1` it was 18.2%; in that of `CCCCN(CCCC)CCNC(=O)c1cn(CC)c2ccc(S(=O)(=O)N3CCc4ccccc4C3)cc2c1=O`, 7.3%.

As for `CCCN(CCC)CCNC(=O)CN1C(=O)COc2ccc(S(=O)(=O)N3CCC(C)CC3)cc21`, the inhibition was -10.8%. Then `COc1ccc(Nc2ncc(C(=O)Nc3cccc(OC)c3)c3ccccc23)cc1`, with -0.483%; and `Cc1ccc(Cl)cc1N(C)C(=O)c1sc2nc3n(c(=O)c2c1C)CCCC3`, with 14.4%. With `COC(=O)c1cc(NC2(c3ccccc3)C(=O)c3ccccc3C2=O)cc(C(=O)OC)c1`, the inhibition was found to be 6.03%. With `Cc1ccc(NC(=O)CSc2nc(=O)n(Cc3ccncc3)c3c2CCC3)cc1Cl`, the inhibition is -12%. As for `CCOc1cc(CNC(=O)CSc2n[nH]c(-c3ccccc3)n2)cc(OCC)c1OCC`, the inhibition is -1.22%.

Turning to `O=C(Nc1ccccc1)C1CCN(S(=O)(=O)c2ccc3c(c2)CCCN3C(=O)C2CCC2)CC1`, the inhibition was 6.1%.

Regarding `COc1ccc(Cn2c(CCC(=O)Nc3cc(C)cc(C)c3)nc3cccnc32)cc1`, the inhibition is -12%.

Take `Cc1ccc(CNC(=O)CCCCCn2c(=O)c3sccc3n(CC(=O)C(C)(C)C)c2=O)cc1`: the inhibition was 6.4%. `Cc1ccc2c(CN3CCN(c4ccc(Cl)cc4)CC3)cc(=O)oc2c1`: the inhibition stood at 11.5%. For the compound `CC(C)c1ccc(NC(=S)NC2CCN(Cc3ccccc3)CC2)cc1`, the inhibition was active: 51.8%. For the compound `Cc1ccc(SCC(=O)Nc2ccc(O)c(-c3nc4cc(C)ccc4o3)c2)cc1`, the inhibition is -18.5%. `Cc1ccc(NC(=O)NC(C)c2c(-n3cccc3)sc(C)c2C)c(C)c1` (centres undefined): the inhibition is 1.2%. Consider `O=c1[nH]c(=O)n(C2CCCO2)cc1F` (centres undefined), for which the inhibition is active: 32.1%.

Regarding `CCOC(=O)CCc1c(C)c2cc3c(c(C)c2oc1=O)OCN(CCc1ccccc1OC)C3`, the inhibition is 16.3%. In the case of `CCOc1ccc(CCNC(=O)c2ccc3nc(N4CCC(C)CC4)sc3c2)cc1OCC` it was 0.925%. For `CCC(C)n1c(=O)c2sccc2n2c(CCCC(=O)Nc3ccc(F)cc3)nnc12` (centres undefined), the inhibition turned out to be 2.39%.

For `CSc1ncc(Cl)c(C(=O)Nc2c(C(=O)c3ccc(C)cc3)oc3ccccc23)n1`, the inhibition was determined as 2.5%.

As to `COc1ccc(C(=O)N(Cc2ccco2)Cc2ccccc2F)cc1Cl`, the inhibition was -7.13%. As for `NS(=O)(=O)c1ccc(N2CCN(C(=O)C3COc4ccccc4O3)CC2)nc1` (centres undefined), the inhibition is active: 34.8%. Consider `O=C(NCC(c1ccco1)S(=O)(=O)c1ccc(Cl)cc1)c1ccc(C(F)(F)F)cc1` (centres undefined), for which the inhibition came to 10.6%.

In the case of `COc1cccc(CC(=O)Nc2c(C(=O)N3CCN(c4ccccc4)CC3)oc3ccccc23)c1`, the inhibition was -3.79%. Consider `Cc1ccc(Cn2c(SCc3ccc(C(=O)O)cc3)nc3cccnc32)cc1`, for which the inhibition stood at 1.61%. Take `O=C(CCC(=O)N1CCOc2ccccc21)NCc1cccs1`: the inhibition was 6.03%.
